Measurements published in a collection of fitness landscapes (doi:10.1016/j.celrep.2020.107928).
Over roughly 81,000 sequences, “one-hybrid fitness for binding parS DNA” has its median near -0.17; the highest 2% begin near 0.51. The list shows a part of the results.

B1: Caulobacter ParB omega fusion; a variant is named by its letters at X, in order, B8GW30 (parent)
chain: MESVVVGEPGMSEGRRGLGRGLSALLGEVDAAPAQAPGEQLGGSREAPIEILQRNPDQPRRTFREEDLEDLSNSIREKGVLQPILVRPSPDTAGEYQIVAGERAWRAAQRAGLKTVPIMVRELDDLAVLEIGIIENVQRADLNVLEEALSYKVLMEKFERTQENIAQTIGKSXSHVANXMRLLXLPDEVQSYLVSGELTAXHARAIAAAADPVALAKQIIEGGLSVRETEALARKAPNLSAGKSKGGRPPRVKDTDTQALESDLSSVLGLDVSIDHRGSTGTLTITYATLEQLDDLCNRLTRGI

Variants of: B1
Test: one-hybrid fitness for binding parS DNA (scaled: cognate 1, non-cognate 0); higher = stronger binding
Conditions: with parS DNA site
Outline: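 Fitness here means the log change in variant-to-wild-type read ratio between plasmids sequenced before and after selection. That scale was set so cognate equals 1 and non-cognate equals 0. The selection was a bacterial one-hybrid screen of Caulobacter ParB libraries, four specificity codons randomised, in E. coli USO carrying a HIS3 reporter with the site 19 bp from the promoter, grown 48 hours at 37°C on M9-minus-histidine with 0.1 mM IPTG and 5 mM 3-AT.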

one-hybrid fitness for binding parS DNA, 0.352:
RKIY

one-hybrid fitness for binding parS DNA, 0.994:
RSMS

one-hybrid fitness for binding parS DNA, 0.344:
RCMM

one-hybrid fitness for binding parS DNA, 0.317:
NQFM

one-hybrid fitness for binding parS DNA, 0.396:
RIDY

one-hybrid fitness for binding parS DNA, 0.201:
VTWG

one-hybrid fitness for binding parS DNA, 0.87:
RFCC

one-hybrid fitness for binding parS DNA, 0.996:
RIMG

one-hybrid fitness for binding parS DNA, 0.223:
MHWM

one-hybrid fitness for binding parS DNA, 0.342:
RLWM

one-hybrid fitness for binding parS DNA, ≤ 0.2:
QDQR
LWED
LAAD
LLTF
LPGR
GLRM
QHNR
NYWW
HSQR
CARC
AVMI
WAVC
GPLG
PWSC
PQPH
IGYM
SRAV
SGTC
QIET
LGLL
ITGW
RAPM
IFNR
QDWL
AGLF
LRCA
FLSS
CVSE
WINS
TCST
WTRF
ENNL
QRDV
AGRR
SQSC
LCLS
PKNP
AWVV
ILGI
CTES
KEER
IHDF
VRVL
SLWY
RAQV
QRHF
MQVF
AIAP
YLMY
SALS
RMHE
PETC
HVDL
PKAR
TSGR
SVCY
QEEL
GQQI
LHQT
DWDS
HVRF
HLIY
YVTA
FRIL
HSTC
AAHS
AQTS
VEIS
RWDW
ISLG
PWME
VKTR
NEHV
DRTV
ADNM
QHHM
QLNY
HTYA
PQRT
SHHF
IGRC
FPAH
TMWT
VFIG
LPLR
LPER
RSGP
CQPN
AIRM
PRRQ
GCNR
RYIK
DKLP
GALK
IVDI
YIVR
CIQT
HSLI
ARVA
IETA
TGKA
IKAI
NCSK
FETL
HMRR
SFRY
QPLR
RIWR
LPFR
RDMD
KRHG
HRVI
KTSF
EAKN
CQNR
CECG
QIRY
THVQ
AQPD
ACTR
VPLR
VGTC
VYTN
QMAW
RSSH
QMPM
HMLH
GYEC
CNTI
RTHP
LTHV
HPMG
KPKA
DIHG
YMYT
NNYA
TYEK
DLAL
QHSD
PTPN
RNGH
QMKC
TCKG
QTII
LLAD
LETR
AHHN
TPLQ
NVSI
PCQI
QLSR
RYNK
GLQR
KPDG
TAIL
NRET
QLQE
IAAR
FPAQ
EMSE
VTVW
TWMC
PAQI
VRIG
EANS
SCAT
HEYR
TPND
CPMK
TIRQ
SFSI
QAHW
GDCR
YTIS
ALLA
QDRR
VLSY
MSTV
QGSD
HRYA
HYLS
PSFG
RLHD
PRMA
FSEG
VWPF
TICW
RVFR
QVQS
TRKD
AQSI
KYPR
MLFL
LFPK
KHHG
KTVR
CKVG
KAIL
VLAL
GVNS
HDTK
TRVD
EVGG
SLMN
WTWG
TLMN
KVVC
FNLS
RGPN
NGST
LGIE
SKMI
PVRW
KVNS
KFPL
PWSF
FTNG
TDSC
LMVT
YLGP
QVFS
ACCY
RKYV
SRCS
TCNE
CWSR
RFAH
TTDI
RYDV
QPVC
WSVT
LYKW
YHDS
CHIP
PWIN
HKCR
VGRC
LRVL
SLHN
WQCR
NFLC
KCAW
QVRD
QTYD
WMKT
QRRH
GSCG
SYKW
SLRP
IGGV
TKNS
DRWE
QHPD
TLPA
DAKK
TVLM
TRWD
PPEV
VAPF
FRVT
PKWC
YTKT
IKPV
KKPV
LARY
EYRT
GVNG
TVSF
TCTV
CQSA
GGAC
NYPR
TARF
CHTK
ATHG
SYQV
DSQS
LSTF
RVMK
NTHG
NCPR
PWDY
NCKD
HQRM
HESG
ERTR
STAN
LAPD
LPQA
YKLC
CLVT
HLFR
CAPI

one-hybrid fitness for binding parS DNA, 0.876:
RWAS

one-hybrid fitness for binding parS DNA, 0.704:
RNCC

one-hybrid fitness for binding parS DNA, 0.219:
RFTW
